PubChem BioAssay AID2451 (National Center for Advancing Translational Sciences (NCATS), 2010)
The campaign covered roughly 290,000 compounds. About 2,100 (0.72%) were called active. The call rests on the fitted dose curve; in most records, active means well fitted inhibition curve with a large enough effect; inconclusive means small, poorly fitted or top-dose-only effect, or effect the other way; inactive means flat fitted curve, though single readings scatter. The inconclusive results got no clear call from the source. Potencies beside an inconclusive call are fits to weak or partial responses and may not hold up.

Each compound was assayed against Fructose-bisphosphate aldolase (Giardia intestinalis (strain ATCC 50803 / WB clone C6)) (UniProt A8B2U2) (assay: qHTS Assay for Inhibitors of Fructose-1,6-bisphosphate Aldolase from Giardia Lamblia). Settings: purified Giardia FBPA; series mostly up to 59.6 µM.
Chain of UniProt A8B2U2 (A8B2U2 whole entry, looked up): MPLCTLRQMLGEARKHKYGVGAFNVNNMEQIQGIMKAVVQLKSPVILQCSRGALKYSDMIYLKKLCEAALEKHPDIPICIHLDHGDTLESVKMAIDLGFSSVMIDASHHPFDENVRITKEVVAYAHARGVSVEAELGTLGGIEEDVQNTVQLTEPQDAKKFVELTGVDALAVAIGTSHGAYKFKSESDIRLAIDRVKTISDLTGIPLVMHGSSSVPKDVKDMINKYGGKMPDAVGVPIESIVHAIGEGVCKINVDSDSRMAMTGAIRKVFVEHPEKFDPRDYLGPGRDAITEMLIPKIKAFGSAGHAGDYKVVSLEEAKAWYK
Source text: Assay Provider: Osnat Herzberg, University of Maryland
The objective of this project is to obtain compounds that inhibit Giardia lamblia growth. G. lamblia is a human pathogen which afflicts impoverished nations; it is the most common cause of outbreaks of diarrhea in the United States. During the course of our study of potential drug targets in Giardia, we have identified the Class II (Zn2+ functions in electrophilic catalysis) fructose-1,6-bisphosphate aldolase (FBPA) as an excellent candidate for drug targeting. FBPA is a key glycolytic pathway enzyme, essential for G. lamblia survival. The human FBPA belongs to the Class I aldolases, which have a different substrate binding site structure and a radically different catalytic mechanism (employing a lysine-Schiff base intermediate). […]
A glyceraldehyde-3-phosphate dehydrogenase/triose phosphate isomerase/NAD/arsenate coupled assay was adapted to the 1536-well HTP format for use in the primary screen. This was done by coupling it to a diaphorase/resazurin/resorufin reaction that can be monitored by fluorescence (excitation, 544 nm; emission, 590 nm). Compounds identified in this screen will be further evaluated by coupling the glycerol-3-phosphate/triose phosphate isomerase/NADH assay to a phenazine methosulfate/tetranitroblue tetrazolium color reaction. […]
6,Detector,525 nm/598 nm (Fluorescence),ViewLux Fluorescence Read (Read 1) […]
Further: nearly all actives have a fitted effect of over 55% in size.
Potency means the concentration at half of the fitted maximal effect; tags describe the fitted curve by direction and shape.

SMILES	Potency
COc1cc(/C=C2/C(=O)NN(c3ccc(Cl)cc3)C2=O)cc(Br)c1O	inconclusive: 3.98 µM [inhibitor, full curve]
CS(=O)(=O)C1=NSC2=NC(=O)/C(=C\c3ccc(OC(=O)c4ccco4)c(Br)c3)C(=N)N21	inconclusive: 39.8 µM [inhibitor, partial curve]
